Results: patent publication US20190352422A1 (PCM TARGETECH, published 2019)

Experiments:
human RON receptor [1] = molecular target: T1, human RON receptor (human, UniProt Q04912 25-1400); experiment: flow cytometry on HT29 cells, FITC-coupled anti-human IgG1 secondary
Procedure: Colon cancer HT29 cell line expressing ˜19,000 RON molecules per cell were used as the model. Mouse PCM5B14 was used as the positive control. Individual H5B14 clones at different concentrations were incubated with cells followed by addition of FITC-coupled anti-human IgG1 antibody. Fluorescence intensities from individual samples were analyzed using the BD flow cytometer. Results in FIG. 2 are the dose-dependent specific binding of individual H5B14s. […] Results in Table 1 show the individual values reflecting the binding affinity and sensitivity of individual H5B14 clones to human RON receptor.

human RON receptor [2] = molecular target: T1, human RON receptor; experiment: cell-based or functional assay

T1 sequence (Q04912 25-1400): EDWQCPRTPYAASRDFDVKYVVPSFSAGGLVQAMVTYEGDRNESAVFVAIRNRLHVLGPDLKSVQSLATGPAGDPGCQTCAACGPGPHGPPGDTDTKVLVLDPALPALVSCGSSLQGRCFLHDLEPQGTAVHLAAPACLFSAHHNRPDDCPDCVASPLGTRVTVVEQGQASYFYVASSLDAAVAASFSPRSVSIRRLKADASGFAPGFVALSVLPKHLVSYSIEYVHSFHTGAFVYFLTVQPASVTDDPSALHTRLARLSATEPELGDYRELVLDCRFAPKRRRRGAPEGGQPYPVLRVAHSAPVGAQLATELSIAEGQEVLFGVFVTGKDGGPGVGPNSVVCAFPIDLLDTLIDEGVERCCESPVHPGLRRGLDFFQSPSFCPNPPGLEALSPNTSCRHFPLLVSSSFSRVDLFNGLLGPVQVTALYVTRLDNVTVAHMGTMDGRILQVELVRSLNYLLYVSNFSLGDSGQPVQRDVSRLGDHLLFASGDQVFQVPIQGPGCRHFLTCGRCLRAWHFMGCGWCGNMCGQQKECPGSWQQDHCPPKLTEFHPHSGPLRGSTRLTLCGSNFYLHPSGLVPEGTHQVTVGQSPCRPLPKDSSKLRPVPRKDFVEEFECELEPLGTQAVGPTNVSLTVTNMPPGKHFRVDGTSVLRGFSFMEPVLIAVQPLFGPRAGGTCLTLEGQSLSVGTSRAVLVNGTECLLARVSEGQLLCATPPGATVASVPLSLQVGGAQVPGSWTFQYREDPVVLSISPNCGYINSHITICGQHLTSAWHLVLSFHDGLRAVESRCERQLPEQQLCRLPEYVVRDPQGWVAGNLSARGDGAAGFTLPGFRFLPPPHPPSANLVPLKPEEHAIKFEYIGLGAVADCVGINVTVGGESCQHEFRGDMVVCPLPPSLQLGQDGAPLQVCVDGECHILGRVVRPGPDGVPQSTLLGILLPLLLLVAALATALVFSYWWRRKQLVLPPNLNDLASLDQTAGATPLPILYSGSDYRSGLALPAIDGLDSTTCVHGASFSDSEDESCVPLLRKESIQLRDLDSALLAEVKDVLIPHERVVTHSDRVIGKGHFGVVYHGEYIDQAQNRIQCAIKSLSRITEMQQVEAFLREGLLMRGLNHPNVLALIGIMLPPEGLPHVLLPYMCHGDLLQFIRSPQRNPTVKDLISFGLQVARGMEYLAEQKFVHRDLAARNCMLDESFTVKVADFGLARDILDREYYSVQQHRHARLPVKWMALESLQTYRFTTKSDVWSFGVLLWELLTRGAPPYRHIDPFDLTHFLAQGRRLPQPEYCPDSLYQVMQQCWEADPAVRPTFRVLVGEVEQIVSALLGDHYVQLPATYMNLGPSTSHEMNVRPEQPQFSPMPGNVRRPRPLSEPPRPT

B1: 5B14-H2L2 (antibody, part only; not given: Humanized light chain L2, IgG1, part only)
heavy: QVQLVQSGAEVKKPGATVKISCKVSGYTFTDYHMDWVQQAPGKGLEWMGDINPNNGGAIYNQKFKGRVTITADTSTDTAYMELSSLRSEDTAVYYCARSHYDYAGGAWFAYWGQGTLVTVSR[human IgG1 constant region not printed]
Human RON receptor [1]
  EC50: 2.17 µg/mL
  LogEC50: 0.336 log(µg/ml)

B2: H5B14 conjugated with MMAE (H5B14-MMAE) (other)
heavy: B1 heavy
light: EIVMTQSPGTLSLSPGERATLSCKSSQSLLFSGNQKNYLAWYQQKPGQAPRLLIYWASTRASGIPDRFSGSGSGTDFTLTISRLEPEDFAVYYCQQYYSFPRTFGQGTKLEIKRTVAAPSVFIFPPSDEQLKSGTASVVCLLNNFYPREAKVQWKVDNALQSGNSQESVTEQDSKDSTYSLSSTLTLSKADYEKHKVYACEVTHQGLSSPVTKSFNRGEC
modifications: MMAE conjugated randomly through a protease-sensitive dipeptide linker (Maleimidocaproyl-Val-Cit-PABC), DAR 4:1 (average 3.76); chain and residues not stated
Human RON receptor [2]
  minimal amounts of H5B14-MMAE required to killing 50% of cancer cells (IC50), MTS assay, 72 hours: 1 to 3 µg/mL
